Target: T1, mouse DLL4 extracellular domain (mouse, UniProt Q9JI71 27-532)
T1 construct: extracellular domain; also called mouse DLL4530
Test: SPR (Biacore), DVD captured via anti-human Fc, mouse DLL4 injected
Procedure: For DLL4 binding kinetic measurements the assay buffer was HBS-EPB: 10 mM Hepes, pH7.5, 150 mM NaCl, 3 mM EDTA, 0.005% Tween 20, 0.1 mg/ml BSA (Sigma A7906). For VEGF binding kinetic measurements the assay buffer was HBS-EP+(3N01B): 10 mM Hepes, pH7.5, 300 mM NaCl, 3 mM EDTA, 0.05% Tween 20, 0.1 mg/ml BSA (Sigma A7906). For example, approximately 9000 RU of goat anti-human Fc specific polyclonal antibody (Thermo Fisher Scientific Inc., Rockford, Ill.) diluted in 10 mM sodium acetate (pH 4.5) is directly immobilized across a CM5 research grade biosensor chip using a standard amine coupling kit according to manufacturer's instructions and procedures at 25 ug/ml. Unreacted moieties on the biosensor surface are blocked with ethanolamine. For kinetic analysis, rate equations derived from the 1:1 Langmuir binding model are fitted simultaneously to multiple antigen injections (using global fit analysis) with the use of Scrubber 2 (BioLogic Software), Biacore Biaevaluation 4.0.1 software or Biacore T100 Evaluation software. […] The equilibrium dissociation constant KD (M) of the reaction between antibodies and the target antigen is then calculated from the kinetic rate constants by the following formula: KD=Koff/Kₒₙ. Binding is recorded as a function of time and kinetic rate constants are calculated.

T1 sequence (Q9JI71 27-532): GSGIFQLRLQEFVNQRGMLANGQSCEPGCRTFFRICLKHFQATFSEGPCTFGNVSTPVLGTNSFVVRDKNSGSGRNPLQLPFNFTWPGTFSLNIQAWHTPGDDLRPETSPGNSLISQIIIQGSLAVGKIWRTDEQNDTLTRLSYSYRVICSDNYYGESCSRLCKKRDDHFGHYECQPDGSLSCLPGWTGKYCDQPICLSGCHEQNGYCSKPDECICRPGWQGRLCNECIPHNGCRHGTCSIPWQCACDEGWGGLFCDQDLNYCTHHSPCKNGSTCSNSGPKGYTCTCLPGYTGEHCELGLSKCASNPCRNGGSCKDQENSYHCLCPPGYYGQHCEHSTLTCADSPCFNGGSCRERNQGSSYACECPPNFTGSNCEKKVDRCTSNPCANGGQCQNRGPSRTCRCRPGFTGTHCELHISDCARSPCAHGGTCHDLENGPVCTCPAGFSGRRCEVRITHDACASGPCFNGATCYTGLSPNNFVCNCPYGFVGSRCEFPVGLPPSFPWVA

- Kd: 24 nM
B1: h1A11.1-SL-Av (bispecific antibody, human IgG1, kappa)
heavy: EVQLVESGGGLVQPGGSLRLSCAASGFTFSNFPMAWVRQAPGKGLEWVATISSSDGTTYYRDSVKGRFTISRDNAKNSLYLQMNSLRAEDTAVYYCARGYYNSPFAYWGQGTLVTVSSASTKGPEVQLVESGGGLVQPGGSLRLSCAASGYTFTNYGMNWVRQAPGKGLEWVGWINTYTGEPTYAADFKRRFTFSLDTSKSTAYLQMNSLRAEDTAVYYCAKYPHYYGSSHWYFDVWGQGTLVTVSSASTKGPSVFPLAPSSKSTSGGTAALGCLVKDYFPEPVTVSWNSGALTSGVHTFPAVLQSSGLYSLSSVVTVPSSSLGTQTYICNVNHKPSNTKVDKKV[omitted - human IgG1 Fc with changes]
light: DIQMTQSPSSLSASVGDRVTITCRASEDIYSNLAWYQQKPGKAPKLLIYDTNNLADGVPSRFSGSGSGTDFTLTISSLQPEDFATYYCQQYNNYPPTFGQGTKLEIKRTVAAPSVFIFPPDIQMTQSPSSLSASVGDRVTITCSASQDISNYLNWYQQKPGKAPKVLIYFTSSLHSGVPSRFSGSGSGTDFTLTISSLQPEDFATYYCQQYSTVPWTFGQGTKVEIKRTVAAPSVFIFPPSDEQLKSGTASVVCLLNNFYPREAKVQWKVDNALQSGNSQESVTEQDSKDSTYSLSSTLTLSKADYEKHKVYACEVTHQGLSSPVTKSFNRGEC
notes: DVD-Ig; also called h1A11.1-SL-Av DVD; DVD Ig

From patent US20190031783A1 (AbbVie / Abbott, published 2019)
